Experimental data from PubChem BioAssay AID1434 (Sanford-Burnham Center for Chemical Genomics, 2008).
The other results are listed elsewhere or left out. The main result of the screen is listed elsewhere. These columns were measured beside it and carry no call. Compounds called inactive in the main read-out are mostly missing here.

The compounds below were run against Runt-related transcription factor 1 (Homo sapiens) + Core-binding factor subunit beta (Homo sapiens) (UniProt Q01196+Q13951) (assay: inhibitors of RUNX1 Runt–CBFb-SMMHC binding, primary screen, biochemical, FRET, Cerulean-Runt, Venus-CBFb-SMMHC, uHTS (AID 1434;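 further: 0% = DMSO wells and 100% = wells with excess untagged CBFb-SMMHC; inhibitors lower the FRET ratio by blocking Runt binding to CBFb-SMMHC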)). Details: Cerulean-Runt/Venus-CBFb-SMMHC FRET ratio 530/480, 1 h; retest duplicate average; at 20 µM; stronger effect = higher value.
UniProt Q01196, sequence (Q01196 whole entry, looked up): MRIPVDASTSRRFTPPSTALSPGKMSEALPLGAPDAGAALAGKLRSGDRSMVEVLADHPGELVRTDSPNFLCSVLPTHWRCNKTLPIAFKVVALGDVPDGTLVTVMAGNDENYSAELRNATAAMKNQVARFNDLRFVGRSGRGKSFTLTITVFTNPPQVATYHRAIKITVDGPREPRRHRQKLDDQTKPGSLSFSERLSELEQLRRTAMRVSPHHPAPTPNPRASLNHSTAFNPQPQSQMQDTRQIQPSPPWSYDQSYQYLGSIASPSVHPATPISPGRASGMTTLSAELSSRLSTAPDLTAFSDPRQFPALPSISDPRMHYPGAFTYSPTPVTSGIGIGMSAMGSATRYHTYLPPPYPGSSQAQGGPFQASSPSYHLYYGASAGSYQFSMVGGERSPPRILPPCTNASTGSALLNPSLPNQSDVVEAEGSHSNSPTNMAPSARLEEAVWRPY
UniProt Q01196, sequence (Q13951 whole entry, looked up): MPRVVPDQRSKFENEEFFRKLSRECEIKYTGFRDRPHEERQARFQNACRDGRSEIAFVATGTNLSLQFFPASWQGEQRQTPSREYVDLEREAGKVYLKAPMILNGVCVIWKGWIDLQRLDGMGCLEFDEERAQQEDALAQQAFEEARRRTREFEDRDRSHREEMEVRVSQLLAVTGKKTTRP

SMILES | inhibition [%]
CC(C)OC(=O)c1c(N)n(CC2CCCO2)c2nc3ccccc3nc12 (configuration not stated) | 139
CCC(=NCc1ccco1)c1c(O)n(C2CCCCC2)c(=O)[nH]c1=O | 120
COCCNC(=O)c1c(NC(=O)c2ccco2)n(Cc2ccccc2)c2nc3ccccc3nc12 | 105
CCCCOCCCn1c(N)c(C(=O)OC(C)COC)c2nc3ccccc3nc21 (configuration not stated) | 117
COCCNC(=O)c1c(N)n(CCC(C)C)c2nc3ccccc3nc12 | 104
COc1ccc(-n2c(O)c(/C=C/C=Nc3ccccc3)c(=O)[nH]c2=O)cc1 | 58.2
Cn1c(O)c(/C=N/NC(=O)c2ccncc2)c(=O)[nH]c1=S | 73.8
N#CC1=C(N)Oc2cc(O)ccc2C1c1ccc2c(c1)OCO2 (configuration not stated) | 70.6
Cc1ccccc1-n1c(O)c(/C=N/NC(=O)c2ccccc2O)c(=O)[nH]c1=S | 66.6
CCOC(=O)c1c(N)n(Cc2ccco2)c2nc3ccccc3nc12 | 104
CCCCn1c(N)c(C(=O)NCCN2CCOCC2)c2nc3ccccc3nc21 | 91.2
CCCCCn1c(NC(=O)c2ccco2)c(C(=O)OCC)c2nc3ccccc3nc21 | 104
CCCNC(=O)c1c(N)n(Cc2ccco2)c2nc3ccccc3nc12 | 97.6
O=C(O)CCC(=O)NCCC1=c2ccccc2=N/C1=C\c1c(O)n(Cc2ccc(F)cc2)c(=S)[nH]c1=O | 87.9
CCCCn1c(N)c(C(=O)OCC2CCCO2)c2nc3ccccc3nc21 (configuration not stated) | 110
O=c1[nH]c(=O)n(-c2ccccc2)c(O)c1/C=C/C=Nc1ccccc1 | 79.1
COCCCn1c(N)c(C(=O)OCCOC)c2nc3ccccc3nc21 | 129
COCCNC(=O)c1c(NC(=O)c2ccc(Br)o2)n(Cc2ccccc2)c2nc3ccccc3nc12 | 83.6
COC(=O)c1c(N)n(Cc2ccc(OC)cc2)c2nc3ccccc3nc12 | 132
COCCOC(=O)c1c(N)n(Cc2ccccc2)c2nc3ccccc3nc12 | 126
O=c1[nH]c(O)c(/C=C2/C=CC(c3cc(Cl)ccc3Cl)=N2)c(=O)[nH]1 | 183
CC(C)CCn1c(N)c(C(=O)OCC2CCCO2)c2nc3ccccc3nc21 (configuration not stated) | 123

SMILES | inhibition [%]
CCC(C)OC(=O)c1c(N)n(Cc2cccs2)c2nc3ccccc3nc12 (configuration not stated) | 109
CCOC(=O)c1c(N)n(CCN2CCCCC2)c2nc3ccccc3nc12 | 105
COc1ccc(CCNC(=O)c2c(N)n(CCN3CCOCC3)c3nc4ccccc4nc23)cc1 | 122
CCC(C)NC(=O)c1c(N)n(CC2CCCO2)c2nc3ccccc3nc12 (configuration not stated) | 116
CC(C)OCCCNC(=O)c1c(N)n(Cc2cccs2)c2nc3ccccc3nc12 | 129
CCOC(=O)c1c(N)n(Cc2ccc(OC)cc2)c2nc3ccccc3nc12 | 135
Nc1c(C(=O)NCc2ccco2)c2nc3ccccc3nc2n1Cc1ccccc1 | 74
CC(C)CNC(=O)c1c(N)n(Cc2ccco2)c2nc3ccccc3nc12 | 72.9
CCCCn1c(O)c(/C=C/C=Nc2ccccc2)c(=O)[nH]c1=O | 77.3
CCCNC(=O)c1c(N)n(CC2CCCO2)c2nc3ccccc3nc12 (configuration not stated) | 86.2
Nc1c(C(=O)OCC2CCCO2)c2nc3ccccc3nc2n1Cc1cccs1 (configuration not stated) | 103
C[C@]12CC[C@@H]3c4ccc(O)c(O)c4CC[C@H]3[C@@H]1CC[C@@H]2O | 59
Cc1cccn2c(=O)c3cc(C(=O)N4CCC5(CC4)OCCO5)n(C)c3nc12 | 63.8
COCCCNC(=O)c1c(NC(=O)c2ccccc2Cl)n(Cc2ccccc2)c2nc3ccccc3nc12 | 64.4
CCCCCn1c(N)c(C(=O)NCCN2CCOCC2)c2nc3ccccc3nc21 | 103
CCOCCCn1c(N)c(C(=O)Nc2sc3c(c2C(=O)OC)CCCC3)c2nc3ccccc3nc21 | 97.8
Nc1c(C(=O)NCCN2CCOCC2)c2nc3ccccc3nc2n1Cc1ccccc1 | 70.6
O=c1[nH]c(=O)n(Cc2ccccc2)c(O)c1/C=C1\C=Nc2ccccc21 | 52.4
N#Cc1c(/N=C/c2ccc(O)cc2O)sc2c1C1CCN2CC1 | 136
COCCOC(=O)c1c(N)n(Cc2ccc(OC)cc2)c2nc3ccccc3nc12 | 123
Nc1c(C(=O)NCc2ccco2)c2nc3ccccc3nc2n1Cc1ccc(F)cc1 | 84.7
COCCCNC(=O)c1c(NC(=O)c2ccco2)n(Cc2ccccc2)c2nc3ccccc3nc12 | 127

SMILES | inhibition [%]
CCCCn1c(N)c(C(=O)NCc2cccs2)c2nc3ccccc3nc21 | 75.5
CCCCn1c(O)c(/C=N/NC(=O)c2ccncc2)c(=O)[nH]c1=S | 74.2
N#Cc1c(Cl)nc(Cl)c2c1CCN(Cc1ccccc1)C2 | 51.9
COCCCNC(=O)c1c(N)n(Cc2ccco2)c2nc3ccccc3nc12 | 70.6
C=CCn1c(O)c(/C=C/C=Nc2ccccc2)c(=O)[nH]c1=O | 74.9
CCn1c(O)c(/C=N/NC(=O)c2ccncc2)c(=O)[nH]c1=S | 75.6
COc1ccc2c3c([nH]c2c1)C(C)NCC3 (configuration not stated) | 70.6
Nc1c(C(=O)NC2CCCC2)c2nc3ccccc3nc2n1CC1CCCO1 (configuration not stated) | 73.5
COCCCn1c(N)c(C(=O)OC(C)COC)c2nc3ccccc3nc21 (configuration not stated) | 143
COc1ccc2c3c([nH]c2c1)C(C)=NCC3 | 71.5
COc1ccc(Cn2c(N)c(C(=O)NCc3ccco3)c3nc4ccccc4nc32)cc1OC | 78.7
COc1ccc(N=Cc2c(O)n(-c3ccc(C)cc3)c(=O)[nH]c2=O)cc1 | 58.5
CCn1c(O)c(/C=N/NC(=O)c2ccccc2)c(=O)n(CC)c1=S | 81.1
COCCCn1c(N)c(C(=O)NCc2ccco2)c2nc3ccccc3nc21 | 84.7
CC(C)c1ccc(-n2c(O)c(/C=N/NC(=O)c3ccccc3O)c(=O)[nH]c2=S)cc1 | 70.9
CCCCCCn1c(N)c(C(=O)NCCN2CCOCC2)c2nc3ccccc3nc21 | 114
Nc1c(C(=O)NCCN2CCOCC2)c2nc3ccccc3nc2n1Cc1ccco1 | 89.1
Cn1c(O)c(/C=C/C=Nc2ccccc2)c(=O)n(C)c1=O | 70.5
CCCCn1c(NS(=O)(=O)c2ccc(C)cc2)c(C(=O)OCC)c2nc3ccccc3nc21 | 71.5
CCC(C)n1c(O)c(/C=N/NC(=O)c2ccncc2)c(=O)[nH]c1=S (configuration not stated) | 71.6
Nc1c(C(=O)NCC2CCCO2)c2nc3ccccc3nc2n1Cc1ccco1 (configuration not stated) | 70.6
CCCCNC(=O)c1c(N)n(CCCOC)c2nc3ccccc3nc12 | 72.4

SMILES | inhibition [%]
CCOC(=O)c1c(NC(=O)c2c(N)n(CCCOC)c3nc4ccccc4nc23)sc2c1CCCC2 | 118
O=C(N/N=C/c1c(O)n(Cc2ccc(F)cc2)c(=S)[nH]c1=O)c1ccncc1 | 73.8
COc1ccc(Cn2c(N)c(C(=O)NCc3ccco3)c3nc4ccccc4nc32)cc1 | 55
CC(C)(C)OC(=O)c1c(N)n(Cc2ccco2)c2nc3ccccc3nc12 | 124
CCCOC(=O)c1c(N)n(Cc2cccs2)c2nc3ccccc3nc12 | 123
CC(C)CCOC(=O)c1c(N)n(CC2CCCO2)c2nc3ccccc3nc12 (configuration not stated) | 100
O=C1NC(=O)C2=Cc3ccc(O)cc3OC2(O)N1 (configuration not stated) | 70.6
O=C1NC(=O)N(c2ccccc2)C(=O)/C1=C\C=C\c1ccccc1 | 56.8
CCCCOCCCn1c(N)c(C(=O)OCCOC)c2nc3ccccc3nc21 | 130
Nc1c(C(=O)NCc2ccco2)c2nc3ccccc3nc2n1CCN1CCOCC1 | 136
CCOC(=O)c1c(N)n(CCCOC(=O)c2ccco2)c2nc3ccccc3nc12 | 149
CC(C)CNC(=O)c1c(N)n(Cc2ccc3c(c2)OCO3)c2nc3ccccc3nc12 | 65.2
Oc1cc2c(cc1O)[C@H]1c3ccccc3CN[C@@H]1CC2 | 52.1
Cc1ccc(-n2c(O)c(/C=C/C=Nc3ccccc3)c(=O)[nH]c2=O)cc1 | 62.6
CCCCn1c(NC(=O)c2ccco2)c(C(=O)OCC)c2nc3ccccc3nc21 | 65.7
O=C(N/N=C/c1c(O)n(C2CC2)c(=S)[nH]c1=O)c1ccccc1O | 80.2
CC(C)OCCCNC(=O)c1c(N)n(CC2CCCO2)c2nc3ccccc3nc12 (configuration not stated) | 71.5
CCCCn1c(N)c(C(=O)OCCOC)c2nc3ccccc3nc21 | 134
Nc1c(C(=O)NCCc2ccccc2)c2nc3ccccc3nc2n1CCN1CCOCC1 | 102
Nc1c(C(=O)OC2CCCCC2)c2nc3ccccc3nc2n1CC1CCCO1 (configuration not stated) | 130
CC(C)n1c(O)c(C2c3cc(Cl)ccc3Oc3[nH]c(=O)n(C(C)C)c(=O)c32)c(=O)[nH]c1=O (configuration not stated) | 75.3
